{"source": "paper PMC9911399", "about": "“Two distinct binding modes provide the RNA-binding protein RbFox with extraordinary sequence specificity”", "binders": {"B1": {"name": "CCGUAUG (DNA:RNA)", "RNA": "GGGAGACCGGAAUUCAGAUUGUCCCCGUAUGUUAAAUCCCGUCGUAGCCACCA", "DNA 1": "CAATCTGAATTCCGGTCTCCC", "DNA 2": "TGGTGGCTACGACGGGATT"}, "B2": {"name": "AGCACCA (DNA:RNA)", "RNA": "GGGAGACCGGAAUUCAGAUUGUCCAGCACCAUUAAAUCCCGUCGUAGCCACCA", "DNA 1": "CAATCTGAATTCCGGTCTCCC", "DNA 2": "TGGTGGCTACGACGGGATT"}, "B3": {"name": "GCCGGCA (DNA:RNA)", "RNA": "B2 RNA with A25G, G26C, A28G, C29G", "DNA 1": "CAATCTGAATTCCGGTCTCCC", "DNA 2": "TGGTGGCTACGACGGGATT"}, "B4": {"name": "UAGAAAU (DNA:RNA)", "RNA": "B1 RNA with C25U, C26A, U28A, U30A, G31U", "DNA 1": "CAATCTGAATTCCGGTCTCCC", "DNA 2": "TGGTGGCTACGACGGGATT"}, "B5": {"name": "AUGACAA (DNA:RNA)", "RNA": "B2 RNA with G26U, C27G, C30A", "DNA 1": "CAATCTGAATTCCGGTCTCCC", "DNA 2": "TGGTGGCTACGACGGGATT"}, "B6": {"name": "AACACCC (DNA:RNA)", "RNA": "B2 RNA with G26A, A31C", "DNA 1": "CAATCTGAATTCCGGTCTCCC", "DNA 2": "TGGTGGCTACGACGGGATT"}, "B7": {"name": "CCCCAGG (DNA:RNA)", "RNA": "B1 RNA with G27C, U28C, U30G", "DNA 1": "CAATCTGAATTCCGGTCTCCC", "DNA 2": "TGGTGGCTACGACGGGATT"}, "B8": {"name": "UUAUCCA (DNA:RNA)", "RNA": "B2 RNA with A25U, G26U, C27A, A28U", "DNA 1": "CAATCTGAATTCCGGTCTCCC", "DNA 2": "TGGTGGCTACGACGGGATT"}, "B9": {"name": "GCAAGUU (DNA:RNA)", "RNA": "B1 RNA with C25G, G27A, U28A, A29G, G31U", "DNA 1": "CAATCTGAATTCCGGTCTCCC", "DNA 2": "TGGTGGCTACGACGGGATT"}, "B10": {"name": "CCAAUAU (DNA:RNA)", "RNA": "B1 RNA with G27A, U28A, A29U, U30A, G31U", "DNA 1": "CAATCTGAATTCCGGTCTCCC", "DNA 2": "TGGTGGCTACGACGGGATT"}, "B11": {"name": "UUGAGUC (DNA:RNA)", "RNA": "B1 RNA with C25U, C26U, U28A, A29G, G31C", "DNA 1": "CAATCTGAATTCCGGTCTCCC", "DNA 2": "TGGTGGCTACGACGGGATT"}, "B12": {"name": "GGCUGCU (DNA:RNA)", "RNA": "B2 RNA with A25G, A28U, C29G, A31U", "DNA 1": "CAATCTGAATTCCGGTCTCCC", "DNA 2": "TGGTGGCTACGACGGGATT"}, "B13": {"name": "GGACCGG (DNA:RNA)", "RNA": "B2 RNA with A25G, C27A, A28C, C30G, A31G", "DNA 1": "CAATCTGAATTCCGGTCTCCC", "DNA 2": "TGGTGGCTACGACGGGATT"}, "B14": {"name": "UCUACGG (DNA:RNA)", "RNA": "B2 RNA with A25U, G26C, C27U, C30G, A31G", "DNA 1": "CAATCTGAATTCCGGTCTCCC", "DNA 2": "TGGTGGCTACGACGGGATT"}, "B15": {"name": "GUAGGCU (DNA:RNA)", "RNA": "B2 RNA with A25G, G26U, C27A, A28G, C29G, A31U", "DNA 1": "CAATCTGAATTCCGGTCTCCC", "DNA 2": "TGGTGGCTACGACGGGATT"}, "B16": {"name": "UAUGCCG (DNA:RNA)", "RNA": "B2 RNA with A25U, G26A, C27U, A28G, A31G", "DNA 1": "CAATCTGAATTCCGGTCTCCC", "DNA 2": "TGGTGGCTACGACGGGATT"}, "B17": {"name": "GGGGUAC (DNA:RNA)", "RNA": "B2 RNA with A25G, C27G, A28G, C29U, C30A, A31C", "DNA 1": "CAATCTGAATTCCGGTCTCCC", "DNA 2": "TGGTGGCTACGACGGGATT"}, "B18": {"name": "CAGGCGU (DNA:RNA)", "RNA": "B1 RNA with C26A, U28G, A29C, U30G, G31U", "DNA 1": "CAATCTGAATTCCGGTCTCCC", "DNA 2": "TGGTGGCTACGACGGGATT"}, "B19": {"name": "AGACCUG (DNA:RNA)", "RNA": "B2 RNA with C27A, A28C, C30U, A31G", "DNA 1": "CAATCTGAATTCCGGTCTCCC", "DNA 2": "TGGTGGCTACGACGGGATT"}, "B20": {"name": "CGCCCAU (DNA:RNA)", "RNA": "B2 RNA with A25C, A28C, C30A, A31U", "DNA 1": "CAATCTGAATTCCGGTCTCCC", "DNA 2": "TGGTGGCTACGACGGGATT"}, "B21": {"name": "UGACGGU (DNA:RNA)", "RNA": "B2 RNA with A25U, C27A, A28C, C29G, C30G, A31U", "DNA 1": "CAATCTGAATTCCGGTCTCCC", "DNA 2": "TGGTGGCTACGACGGGATT"}, "B22": {"name": "AUGCGCU (DNA:RNA)", "RNA": "B2 RNA with G26U, C27G, A28C, C29G, A31U", "DNA 1": "CAATCTGAATTCCGGTCTCCC", "DNA 2": "TGGTGGCTACGACGGGATT"}, "B23": {"name": "AACGACG (DNA:RNA)", "RNA": "B2 RNA with G26A, A28G, C29A, A31G", "DNA 1": "CAATCTGAATTCCGGTCTCCC", "DNA 2": "TGGTGGCTACGACGGGATT"}, "B24": {"name": "AUAAAAG (DNA:RNA)", "RNA": "B2 RNA with G26U, C27A, C29A, C30A, A31G", "DNA 1": "CAATCTGAATTCCGGTCTCCC", "DNA 2": "TGGTGGCTACGACGGGATT"}, "B25": {"name": "GGACGUA (DNA:RNA)", "RNA": "B2 RNA with A25G, C27A, A28C, C29G, C30U", "DNA 1": "CAATCTGAATTCCGGTCTCCC", "DNA 2": "TGGTGGCTACGACGGGATT"}, "B26": {"name": "UCGCGCC (DNA:RNA)", "RNA": "B1 RNA with C25U, U28C, A29G, U30C, G31C", "DNA 1": "CAATCTGAATTCCGGTCTCCC", "DNA 2": "TGGTGGCTACGACGGGATT"}, "B27": {"name": "CUGUUCU (DNA:RNA)", "RNA": "B1 RNA with C26U, A29U, U30C, G31U", "DNA 1": "CAATCTGAATTCCGGTCTCCC", "DNA 2": "TGGTGGCTACGACGGGATT"}, "B28": {"name": "UAUGUUA (DNA:RNA)", "RNA": "B2 RNA with A25U, G26A, C27U, A28G, C29U, C30U", "DNA 1": "CAATCTGAATTCCGGTCTCCC", "DNA 2": "TGGTGGCTACGACGGGATT"}, "B29": {"name": "GGAGAAA (DNA:RNA)", "RNA": "B2 RNA with A25G, C27A, A28G, C29A, C30A", "DNA 1": "CAATCTGAATTCCGGTCTCCC", "DNA 2": "TGGTGGCTACGACGGGATT"}, "B30": {"name": "CCGCCGA (DNA:RNA)", "RNA": "B1 RNA with U28C, A29C, U30G, G31A", "DNA 1": "CAATCTGAATTCCGGTCTCCC", "DNA 2": "TGGTGGCTACGACGGGATT"}, "B31": {"name": "UAAGAAA (DNA:RNA)", "RNA": "B2 RNA with A25U, G26A, C27A, A28G, C29A, C30A", "DNA 1": "CAATCTGAATTCCGGTCTCCC", "DNA 2": "TGGTGGCTACGACGGGATT"}}, "note": "Residue numbers refer to the chain shown, from its start. Some of the results follow."}
{"molecular_target": "T1, RBFOX1 RRM RbFoxmut (Fox-RRM*) (Homo sapiens, UniProt Q9NWB1 109-208, R118D;E147R;N151S;E152T)", "T1 sequence": "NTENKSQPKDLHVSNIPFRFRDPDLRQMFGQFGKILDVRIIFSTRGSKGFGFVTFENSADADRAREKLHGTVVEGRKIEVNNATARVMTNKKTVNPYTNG", "assay": "EMSA; HiTS-Eq, 1 nM pool, 10 min; buffer printed only for the single-RNA assays: 10 mM Tris pH 7.5, 150 mM NaCl, 3.4 mM EDTA, 0.001% NP-40, 30 C", "details": "tags: His6 N-terminal (pET28a); label: 5' 32P", "procedure,_shortened": "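These values rest on relative association constants, computed from read-count changes of each RNA species versus the control reaction and normalised to the cognate motif. Reads came from free RNA recovered by 8% native PAGE after purified RbFox RRM (wild type or mutant) at increasing concentrations was equilibrated for 10 min in 50 µL with 1 nM of a 5′-radiolabelled pool with 7 randomized nucleotides and DNA-annealed flanks.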"}
{"binder": "B1", "binding signal": "0.534 KA relative to UGCAUGU"}
{"binder": "B2", "binding signal": "0.0752 KA relative to UGCAUGU"}
{"binder": "B3", "binding signal": "0.143 KA relative to UGCAUGU"}
{"binder": "B4", "binding signal": "0.0712 KA relative to UGCAUGU"}
{"binder": "B5", "binding signal": "0.0537 KA relative to UGCAUGU"}
{"binder": "B6", "binding signal": "0.0374 KA relative to UGCAUGU"}
{"binder": "B7", "binding signal": "0.0949 KA relative to UGCAUGU"}
{"binder": "B8", "binding signal": "0.0965 KA relative to UGCAUGU"}
{"binder": "B9", "binding signal": "0.0874 KA relative to UGCAUGU"}
{"binder": "B10", "binding signal": "0.112 KA relative to UGCAUGU"}
{"binder": "B11", "binding signal": "0.151 KA relative to UGCAUGU"}
{"binder": "B12", "binding signal": "0.095 KA relative to UGCAUGU"}
{"binder": "B13", "binding signal": "0.108 KA relative to UGCAUGU"}
{"binder": "B14", "binding signal": "0.0815 KA relative to UGCAUGU"}
{"binder": "B15", "binding signal": "0.103 KA relative to UGCAUGU"}
{"binder": "B16", "binding signal": "0.131 KA relative to UGCAUGU"}
{"binder": "B17", "binding signal": "0.103 KA relative to UGCAUGU"}
{"binder": "B18", "binding signal": "0.086 KA relative to UGCAUGU"}
{"binder": "B19", "binding signal": "0.0751 KA relative to UGCAUGU"}
{"binder": "B20", "binding signal": "0.0643 KA relative to UGCAUGU"}
{"binder": "B21", "binding signal": "0.0771 KA relative to UGCAUGU"}
{"binder": "B22", "binding signal": "0.112 KA relative to UGCAUGU"}
{"binder": "B23", "binding signal": "0.108 KA relative to UGCAUGU"}
{"binder": "B24", "binding signal": "0.101 KA relative to UGCAUGU"}
{"binder": "B25", "binding signal": "0.137 KA relative to UGCAUGU"}
{"binder": "B26", "binding signal": "0.153 KA relative to UGCAUGU"}
{"binder": "B27", "binding signal": "0.0887 KA relative to UGCAUGU"}
{"binder": "B28", "binding signal": "0.137 KA relative to UGCAUGU"}
{"binder": "B29", "binding signal": "0.0602 KA relative to UGCAUGU"}
{"binder": "B30", "binding signal": "0.128 KA relative to UGCAUGU"}
{"binder": "B31", "binding signal": "0.0643 KA relative to UGCAUGU"}
